Results are given in words; binding and its absence hold for the method and conditions named. For some assays here: In cells and extracts the contact can be indirect. Some binding calls cover weakened binding; strength is not graded here. For some assays here: Sequences can lack the tags named with a protein.
T1: Lig4-GFP (S. pombe) (UniProt O74833)
T1 sequence: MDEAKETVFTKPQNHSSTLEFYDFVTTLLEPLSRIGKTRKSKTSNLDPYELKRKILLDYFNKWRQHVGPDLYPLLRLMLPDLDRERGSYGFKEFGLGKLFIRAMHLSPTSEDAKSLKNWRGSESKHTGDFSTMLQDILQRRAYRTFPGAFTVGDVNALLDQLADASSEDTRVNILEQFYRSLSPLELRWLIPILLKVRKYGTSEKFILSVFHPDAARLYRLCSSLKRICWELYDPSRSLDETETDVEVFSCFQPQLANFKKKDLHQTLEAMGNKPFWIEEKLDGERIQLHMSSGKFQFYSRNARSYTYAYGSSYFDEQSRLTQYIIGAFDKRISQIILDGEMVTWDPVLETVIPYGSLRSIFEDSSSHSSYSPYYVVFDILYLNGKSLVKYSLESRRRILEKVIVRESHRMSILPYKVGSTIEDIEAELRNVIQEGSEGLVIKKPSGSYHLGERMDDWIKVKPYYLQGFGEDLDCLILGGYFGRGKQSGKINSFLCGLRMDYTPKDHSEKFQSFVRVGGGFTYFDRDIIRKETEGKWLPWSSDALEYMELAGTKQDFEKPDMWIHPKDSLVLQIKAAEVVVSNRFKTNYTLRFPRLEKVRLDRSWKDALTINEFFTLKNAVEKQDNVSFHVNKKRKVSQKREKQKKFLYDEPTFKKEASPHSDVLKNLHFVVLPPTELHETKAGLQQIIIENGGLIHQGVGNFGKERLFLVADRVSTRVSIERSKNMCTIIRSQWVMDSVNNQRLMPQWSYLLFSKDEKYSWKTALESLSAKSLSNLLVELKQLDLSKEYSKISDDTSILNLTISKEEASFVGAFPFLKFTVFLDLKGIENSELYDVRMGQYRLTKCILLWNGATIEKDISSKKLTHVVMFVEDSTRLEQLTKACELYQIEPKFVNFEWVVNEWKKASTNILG

T2: Lig4 fragment (amino acids 660-830) (S. pombe) (UniProt O74833)
T2 sequence: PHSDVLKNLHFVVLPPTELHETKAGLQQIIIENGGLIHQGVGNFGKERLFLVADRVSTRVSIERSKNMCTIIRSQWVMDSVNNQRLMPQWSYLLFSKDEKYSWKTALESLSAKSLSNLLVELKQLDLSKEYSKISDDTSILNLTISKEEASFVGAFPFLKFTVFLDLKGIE

T3: Lig4 fragment (amino acids 741-913) (S. pombe) (UniProt O74833)
T3 sequence: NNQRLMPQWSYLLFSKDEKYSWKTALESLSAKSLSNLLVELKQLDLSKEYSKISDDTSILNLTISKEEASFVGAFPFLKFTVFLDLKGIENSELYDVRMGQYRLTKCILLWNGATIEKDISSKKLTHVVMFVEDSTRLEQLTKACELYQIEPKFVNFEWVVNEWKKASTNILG

T4: Lig4 (two-hybrid bait) (S. pombe) (UniProt O74833)
T4 sequence: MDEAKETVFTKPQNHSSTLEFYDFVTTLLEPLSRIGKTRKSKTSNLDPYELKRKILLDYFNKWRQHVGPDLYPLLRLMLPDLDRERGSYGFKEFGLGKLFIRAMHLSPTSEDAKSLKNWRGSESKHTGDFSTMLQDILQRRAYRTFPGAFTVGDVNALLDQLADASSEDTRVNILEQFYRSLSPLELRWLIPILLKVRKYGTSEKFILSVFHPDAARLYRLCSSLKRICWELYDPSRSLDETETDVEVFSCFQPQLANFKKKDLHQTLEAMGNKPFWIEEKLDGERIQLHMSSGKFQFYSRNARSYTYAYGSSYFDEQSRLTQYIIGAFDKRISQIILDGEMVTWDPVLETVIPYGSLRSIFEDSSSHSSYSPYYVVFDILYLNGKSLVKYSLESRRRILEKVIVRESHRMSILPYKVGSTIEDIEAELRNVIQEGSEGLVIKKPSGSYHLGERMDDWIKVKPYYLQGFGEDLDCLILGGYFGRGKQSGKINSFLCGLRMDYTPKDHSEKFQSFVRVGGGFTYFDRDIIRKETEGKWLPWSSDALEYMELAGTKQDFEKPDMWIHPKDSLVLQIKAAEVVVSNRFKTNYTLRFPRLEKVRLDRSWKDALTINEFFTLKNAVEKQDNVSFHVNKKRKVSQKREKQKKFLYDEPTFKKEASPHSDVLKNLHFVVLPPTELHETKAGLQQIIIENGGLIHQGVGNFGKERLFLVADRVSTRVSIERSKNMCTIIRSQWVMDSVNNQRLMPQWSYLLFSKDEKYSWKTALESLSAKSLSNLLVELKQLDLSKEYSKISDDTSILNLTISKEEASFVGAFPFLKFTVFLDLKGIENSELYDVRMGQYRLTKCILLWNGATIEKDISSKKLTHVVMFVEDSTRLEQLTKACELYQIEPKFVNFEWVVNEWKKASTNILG

T5: C-terminal fragment of Lig4 (amino acids 660-913) (S. pombe) (UniProt O74833)
T5 sequence: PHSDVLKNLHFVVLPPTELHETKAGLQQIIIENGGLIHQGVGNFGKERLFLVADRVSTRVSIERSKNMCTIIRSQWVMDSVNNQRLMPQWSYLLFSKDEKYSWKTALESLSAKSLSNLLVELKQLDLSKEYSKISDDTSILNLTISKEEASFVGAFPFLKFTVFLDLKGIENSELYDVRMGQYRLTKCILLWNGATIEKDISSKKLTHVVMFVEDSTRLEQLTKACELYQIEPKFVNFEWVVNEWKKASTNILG


Experiments:
Lig4-GFP (S. pombe) = target: T1, Lig4-GFP (S. pombe); test: co-IP; GFP-trap agarose beads precipitate the GFP-tagged protein from lysates of S. pombe cells co-expressing the two proteins from P41nmt1; lysis buffer 50 mM HEPES pH 7.5, 1 mM EDTA, 150 mM NaCl, 10% glycerol, 1 mM DTT, 0.05% NP-40; five washes
[1] = target: T2, Lig4 fragment (amino acids 660-830) (S. pombe); test: two-hybrid; Matchmaker system (Clontech), Lig4 and fragments as bait, Xrc4 as prey, AH109 strain; HIS3 and ADE2 reporters assessed on SD/-Ade/-His/-Leu/-Trp
[2] = target: T3, Lig4 fragment (amino acids 741-913) (S. pombe); test: as above
[3] = target: T4, Lig4 (two-hybrid bait) (S. pombe); test: as above
[4] = target: T5, C-terminal fragment of Lig4 (amino acids 660-913) (S. pombe); test: as above

Row | Binder | binding (Lig4-GFP (S. pombe)) | binding [1] | binding [2] | binding [3] | binding [4]
1 | Xrc4-mCherry (protein, UniProt Q92361 1-264) MKFFLSLKDFKGEKFVLRSELDESSAFLCAISPTCRYVLRDEIPWKRLQRNVTSESLTDELIVDLLCGRSESKHTLQLVVLENLCRIYINYVDPFPLRIAWFELEQQALKDHEHFDVLWECSHSIKDLALASMAQQKNELQKLMAYTEQLQEECKSRERKLIMKFADMIKNARNNEDNEDNHHINYEDESDVGTDEQKQQEGVNSSAVSDTDESAVSDEFMQIKEEFPMKALSASPTADASPESAGEDDSHRRSSHESSETVSE | binds |  |  |  | 
2 | Xrc4 (two-hybrid prey) (protein, UniProt Q92361 1-264) MKFFLSLKDFKGEKFVLRSELDESSAFLCAISPTCRYVLRDEIPWKRLQRNVTSESLTDELIVDLLCGRSESKHTLQLVVLENLCRIYINYVDPFPLRIAWFELEQQALKDHEHFDVLWECSHSIKDLALASMAQQKNELQKLMAYTEQLQEECKSRERKLIMKFADMIKNARNNEDNEDNHHINYEDESDVGTDEQKQQEGVNSSAVSDTDESAVSDEFMQIKEEFPMKALSASPTADASPESAGEDDSHRRSSHESSETVSE |  | no binding | binds | binds | binds

Reference: paper PMC4455778
